# Laboratory results published in patent US7943340B2, “Fungal dipeptidyl peptidase IV (DPPIV) enzyme for reagent use” (priority 2003, dated 2011).
# Tested on: desMet-G-CSF
# Assay: Digestion of desMet-G-CSF with DPPIV
# Conditions: overnight 37° C., E/S 1/20 (w:w)
# Protocol: The freeze-dried material was suspended at a 1 mg/ml concentration in 50 mM Tris-HCl, pH 7.5 containing 0.1% Sarcosyl and incubated overnight at 37° C. with DPPIV at an E/S ratio of 1/20 (w:w). The protein was isolated by RP-HPLC as before and characterized by ESI-MS (FIGS. 13A and B).
substance,measurement,value
"ruDPPIV: T. rubrum dipeptidylpeptidase IV, 775 amino acid residues (SEQ ID NO: 35)",cleavage of N-terminal dipeptide from desMet-G-CSF,cleavage of the N-terminal dipeptide Thr-Pro
